The other results are listed elsewhere or left out.
Target: T1, OsWOX13 (Oryza sativa, UniProt Q5QMM3 1-267)
T1 sequence: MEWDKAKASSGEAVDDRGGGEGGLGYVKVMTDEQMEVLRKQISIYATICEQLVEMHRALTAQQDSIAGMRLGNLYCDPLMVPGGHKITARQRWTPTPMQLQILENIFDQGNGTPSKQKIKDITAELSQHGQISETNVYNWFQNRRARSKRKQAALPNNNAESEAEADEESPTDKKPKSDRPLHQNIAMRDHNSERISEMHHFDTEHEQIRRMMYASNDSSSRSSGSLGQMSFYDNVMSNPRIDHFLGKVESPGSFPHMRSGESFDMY
Assay: protein-binding microarray (RPBM); PBS, 2% BSA, 51.3 ng/ul salmon testes DNA, 50 uM zinc acetate, 200 nM TF, 25 C, 1 h; high values mean tight binding
Conditions: protein: recombinant; tags: N-terminal polyhistidine and DsRed monomer fusion (pET32a); label: CyDye5-dUTP incorporated in the synthesized complementary strand; 3' TTTTT single-stranded linker to array surface; dsDNA, one strand shown
Procedure, shortened: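 The binding signal for each feature is its fluorescence intensity in arbitrary units. An Axon 4000B scanner was used to read a custom Agilent array that had been made double-stranded with Cy5-dUTP primer extension, blocked with 2% BSA, incubated at 25 °C for 1 h with 200 nM protein in PBS, 2% BSA, salmon testes DNA and 50 µM zinc acetate, and washed. The protein was an N-terminal polyhistidine–DsRed transcription factor fusion from E. coli BL21-CodonPlus, purified on Ni–NTA.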

Sequence	binding signal
AATTTTGATTTGATTCTGCTGCCTCCGGCGCGCCCCTGATCGGAGTCACCTAGTGCAG	16700 fluorescence intensity (a.u.)
CAAACAATCACGAGGAGCAGAGCAGGCAGCCGATTCGACACGGAGTCACCTAGTGCAG	4410 fluorescence intensity (a.u.)
GTTGATTAATCGCTGGTTAATTTTAATCAAGCGTCTCATTCGGAGTCACCTAGTGCAG	44000 fluorescence intensity (a.u.)
ACCAAATTAGTTTCATTAAATTTAATATTAAATATATTTTCGGAGTCACCTAGTGCAG	22400 fluorescence intensity (a.u.)
TAATCAAATTGGGAATTTGTTAATGAATAATGTAATTAATCGGAGTCACCTAGTGCAG	19100 fluorescence intensity (a.u.)
TGTCGTCAAAATTTGATGGAATTCACACGAATTTAGCAACCGGAGTCACCTAGTGCAG	5150 fluorescence intensity (a.u.)
GAGATTGTTGATAGATCTGCAGGTAAGTGGTACTGTCCCACGGAGTCACCTAGTGCAG	10000 fluorescence intensity (a.u.)
GATCGAAATTGCATGATTTTGTTTAGTCTAGGAGTAAGGACGGAGTCACCTAGTGCAG	5890 fluorescence intensity (a.u.)
CAGATTGAGAGTTCGGGAGGAAAAGGAACAGTACGTGGGCCGGAGTCACCTAGTGCAG	9740 fluorescence intensity (a.u.)
GAGAAATGTTAATTTATCTGTTTATTTATTCGCTCTTCAGCGGAGTCACCTAGTGCAG	19100 fluorescence intensity (a.u.)
CAAGAACATGATTGTCACTTACCTTGCCTTCCTCAATCTTCGGAGTCACCTAGTGCAG	20700 fluorescence intensity (a.u.)
CACATTGATTGGCGGAGATCACCATACGAAATGATGAGATCGGAGTCACCTAGTGCAG	50400 fluorescence intensity (a.u.)
CCCTCAAAATTACATTAACACCCCTGCCCAGCAGCTCAGCCGGAGTCACCTAGTGCAG	3260 fluorescence intensity (a.u.)
GTTCTGCTAATCTGTAATGTTTCTTTTGTTTGTCATATCTCGGAGTCACCTAGTGCAG	4070 fluorescence intensity (a.u.)
TGGTTTCAATAATCAGGGGTCGTGATATATGGTATTATGGCGGAGTCACCTAGTGCAG	3210 fluorescence intensity (a.u.)
CCAAAACGCCCAAATTATGTTCCAATTGAGGTTGCTGGCACGGAGTCACCTAGTGCAG	5610 fluorescence intensity (a.u.)
AGTATATACTTTTGTTGATTGCATTCTTTCCTTTTCTTTTCGGAGTCACCTAGTGCAG	4550 fluorescence intensity (a.u.)
CTTTAAATTTTAACTTTTGCATTGGCTTATTAGACCAACTCGGAGTCACCTAGTGCAG	4620 fluorescence intensity (a.u.)
CTGAAACTGATTGAACTTTTGTCCATTTTCAGATCGTGTACGGAGTCACCTAGTGCAG	49400 fluorescence intensity (a.u.)
GTTTCGTCTCGTAATTTACACGCAATCTGTGTAATTAGTTCGGAGTCACCTAGTGCAG	7230 fluorescence intensity (a.u.)
AAGTAATTATTTATTCTTTTCATATCATTTGATTCATTGTCGGAGTCACCTAGTGCAG	20800 fluorescence intensity (a.u.)
GTCAAATCATGATGTAATTACACTCAGAAGATTCGTCTCGCGGAGTCACCTAGTGCAG	29200 fluorescence intensity (a.u.)
GGCATAAATTTAGAGACTGTACGTTTTGTACTTGGTGTGACGGAGTCACCTAGTGCAG	4530 fluorescence intensity (a.u.)
TGTCAATCAACAGTCGGCACATATGTGGTAAGTCTCGCACCGGAGTCACCTAGTGCAG	24700 fluorescence intensity (a.u.)
TGTTGACAACTAATCAATTGCAATAAGTAACGTGTTAGGTCGGAGTCACCTAGTGCAG	32900 fluorescence intensity (a.u.)
TAAAACAATCAATTTCTCAACAACAGTCCAGTTAGTATCACGGAGTCACCTAGTGCAG	7030 fluorescence intensity (a.u.)
AATGATAACACATGATTAATACTTTATGCGTGACTTGTCTCGGAGTCACCTAGTGCAG	17400 fluorescence intensity (a.u.)

Sequence	binding signal
GGATATTTGGATAATTATCGAATCTAAAAGTGGCAAATATCGGAGTCACCTAGTGCAG	5840 fluorescence intensity (a.u.)
ATTAATCTATGATTTGCTACAGTGATGCTACAGTATTCATCGGAGTCACCTAGTGCAG	13500 fluorescence intensity (a.u.)
GTATTAATCATGTTTTATCATCTAACAACAATGAAAATACCGGAGTCACCTAGTGCAG	4830 fluorescence intensity (a.u.)
AAAATTGGATATATCCTTTCCTTCACCCAGTATTCAAGTTCGGAGTCACCTAGTGCAG	3350 fluorescence intensity (a.u.)
CCGCTTCATCCGCCATGATTGCTGCAACTACTTAGGGTTACGGAGTCACCTAGTGCAG	6670 fluorescence intensity (a.u.)
TTGTTAATCATGCAATTATGATAAATTTACAGCTATATGTCGGAGTCACCTAGTGCAG	17700 fluorescence intensity (a.u.)
CGCCCTTTAATTTTATGCTTTTGAATATGGAATCAGAAGGCGGAGTCACCTAGTGCAG	3680 fluorescence intensity (a.u.)
AACTAAACAGCTTCTTTAATTTGAAAGCAAGCAAGGAGAGCGGAGTCACCTAGTGCAG	12300 fluorescence intensity (a.u.)
ATTATATATTTAATAAAATTAATTTGGTGTTGTATATTTACGGAGTCACCTAGTGCAG	8780 fluorescence intensity (a.u.)
TATAATATATGATTTCTGATTTTGTTTTACCATTATTTTGCGGAGTCACCTAGTGCAG	4940 fluorescence intensity (a.u.)
AGAGATAATTTGAACCATATATTAATCATCTAAGGACTAACGGAGTCACCTAGTGCAG	11200 fluorescence intensity (a.u.)
CTAGCTGATTATATATACTCCCTCCGTCCCTAAATATTCGCGGAGTCACCTAGTGCAG	8380 fluorescence intensity (a.u.)
AATTAATCATGGAGAATTTGATAAAATTAGATCCAACCATCGGAGTCACCTAGTGCAG	13600 fluorescence intensity (a.u.)
CATATGACTGTCAACGCCGTAAATATATCTGTAATATTACCGGAGTCACCTAGTGCAG	6840 fluorescence intensity (a.u.)
AGCTAATTAACAGCTTAATCACTTGATAAACAACTCACTCCGGAGTCACCTAGTGCAG	51700 fluorescence intensity (a.u.)
GCGGCAATCATCTAACCGTCCATCCCGTGATCGAGCGCATCGGAGTCACCTAGTGCAG	8920 fluorescence intensity (a.u.)
TTAATTGTTGCCGATAATAGCCATGGTTCCCTTGCCATTTCGGAGTCACCTAGTGCAG	6180 fluorescence intensity (a.u.)
TCAAATCATAGCATAATTAAGTTTAAAAGATTCGTCTCGCCGGAGTCACCTAGTGCAG	11600 fluorescence intensity (a.u.)
ATAAATAAATTGGAGCTAGTAGTAGGCTATACTATTAAACCGGAGTCACCTAGTGCAG	20000 fluorescence intensity (a.u.)
CGTCAATCACACAGATTAGGTCAACACCGCCACGTCAACACGGAGTCACCTAGTGCAG	22900 fluorescence intensity (a.u.)
ACAATCAAATTTAAATGATTAGCCACATACAGAATCAAATCGGAGTCACCTAGTGCAG	21500 fluorescence intensity (a.u.)
AGGAAAATGTTAATTTGTCAGCAAGTGCATACTGGGTGCCCGGAGTCACCTAGTGCAG	11200 fluorescence intensity (a.u.)
GCAAATTAATTAACTAATTAATTAAACACCCAACTAATCTCGGAGTCACCTAGTGCAG	63700 fluorescence intensity (a.u.)
AGCCTTTGTTTATGTAATCAATTCTAGTGTTACTAGTAGACGGAGTCACCTAGTGCAG	5730 fluorescence intensity (a.u.)
ATGATTAGGTAGGCATCAGTGATTCAGTGGTAATTGCGCGCGGAGTCACCTAGTGCAG	8380 fluorescence intensity (a.u.)
ACAACAATTTAATTTCTCATCTGCTATCGTACACCATAGCCGGAGTCACCTAGTGCAG	8700 fluorescence intensity (a.u.)
TAAGTGATTTATACTGTCTCGGCATGGCGACCGATCTATCCGGAGTCACCTAGTGCAG	12400 fluorescence intensity (a.u.)
